Measured values from the supplement of paper PMC10126150.
Sequences with one replicate were seen in a single cluster, so their values are uncertain.

System: ATP
Experiment: switch fluorescence ratio, 500 uM ATP over buffer (Cy3 cluster intensity, sum of 5 cycles each) (fold (ratio)); higher = stronger signal-on switching upon ATP binding; sequences stand for … in TCGTCGGCAGCGTCAGATGTGTATAAGAGACAGTTTTTTTTTTTTTTTTTTTTTTTTT…TC
Details: aptamer strand: ATP DNA aptamer (quencher-CACCTGGGGGAGTATTGCGGAGGAAGG + anchor), 100 nM annealed; ATP concentration: 500 uM; one replicate
Outline: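 Switching-strand clusters labelled with Cy3 on a modified Illumina MiSeq flow-cell were annealed to 100 nM quencher-labelled ATP aptamer, imaged in selection buffer, and re-imaged after 15 min with 500 uM ATP at 22 °C. This was done over five cycles with NaOH stripping and re-annealing in between. The fluorescence ratio is summed target-cycle over summed buffer-cycle Cy3 intensity per cluster, averaged per switch-domain sequence, excluding clusters outside 100-1000 RFU.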
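Further: ATP exposure 15 min at 22 °C before imaging.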

For TAGGCTTACG, the switch fluorescence ratio was 0.963.

With AAAAACCTGT the switch fluorescence ratio was 1.05.

GATGCGCAC gave a switch fluorescence ratio of 1.05.

For ATTTAAAATT, the switch fluorescence ratio was 0.968.

GCCTTTATTT showed a switch fluorescence ratio of 1.

With AGGTAGAAGG the switch fluorescence ratio was 0.993.

ACAGCTTGGG gave a switch fluorescence ratio of 0.909.

ACGGATGCTC showed a switch fluorescence ratio of 1.05.

In the case of CCAAACATGG, the switch fluorescence ratio is reported as 0.976.

TCACTGAGGG showed a switch fluorescence ratio of 1.05.

In the case of GAAACCGCGC, the switch fluorescence ratio is reported as 3.16.

GGCATCCTTA gave a switch fluorescence ratio of 0.968.

For TTAAGGAAGT, the switch fluorescence ratio was 0.929.

In the case of TGGCTCCCAC, the switch fluorescence ratio is reported as 1.32.

Sequence GATGTATTAG has a switch fluorescence ratio of 0.985.

For AATTGGTGTA, the switch fluorescence ratio was 1.01.

Sequence GGGCTGGCAT has a switch fluorescence ratio of 0.954.

Sequence ATTCGTAGTA has a switch fluorescence ratio of 1.02.

Work on ATCTCAAGCC yielded a switch fluorescence ratio of 0.994.

TTATGGTCG was tested, and the switch fluorescence ratio was 1.07.

Sequence AATGCACGAG has a switch fluorescence ratio of 1.04.

For CAAATATTGT, the switch fluorescence ratio was 0.948.

For CGGGACTAGT, the switch fluorescence ratio was 0.946.

Work on AGGGGAAGCA yielded a switch fluorescence ratio of 1.

TGTGTTCGAT was tested, and the switch fluorescence ratio was 1.03.

CGGGGCCCGG gave a switch fluorescence ratio of 1.12.

GTACTACATG showed a switch fluorescence ratio of 1.01.

For AATCGTCATT, the switch fluorescence ratio was 0.973.

TAATTGGCT gave a switch fluorescence ratio of 1.03.

TTGACACCAG was tested, and the switch fluorescence ratio was 0.97.

Sequence GATATAGGCC has a switch fluorescence ratio of 0.989.

Sequence CTCTGCTACG has a switch fluorescence ratio of 1.91.

Sequence GTTGCAATCA has a switch fluorescence ratio of 1.03.

ACTTTAGGCT was tested, and the switch fluorescence ratio was 1.04.

In the case of CTTGACTCTT, the switch fluorescence ratio is reported as 0.995.

CAGTGCCGGA gave a switch fluorescence ratio of 0.951.

GCCCCTTATT showed a switch fluorescence ratio of 0.981.

With AAGATTAAAA the switch fluorescence ratio was 1.1.

Work on TACCCGGTGT yielded a switch fluorescence ratio of 1.97.

For TTATGTTCTG, the switch fluorescence ratio was 0.952.

CGAGATGGAG gave a switch fluorescence ratio of 1.01.

TATTTGTGAG was tested, and the switch fluorescence ratio was 0.993.

With AAAATCGGGG the switch fluorescence ratio was 0.996.

Work on CTCAGTGCAA yielded a switch fluorescence ratio of 2.44.

Work on ATTTAGACAG yielded a switch fluorescence ratio of 0.959.

TTGATGTTAC gave a switch fluorescence ratio of 1.83.

With CGTCATGTTT the switch fluorescence ratio was 0.969.

Work on TATCGTGCCC yielded a switch fluorescence ratio of 0.944.

CTGGGCTAGT gave a switch fluorescence ratio of 1.

Sequence GAGTTTCGTA has a switch fluorescence ratio of 0.989.

CCGCGGTGTG gave a switch fluorescence ratio of 1.08.

With CGGTTCACAG the switch fluorescence ratio was 1.01.

GATGGCAGTT was tested, and the switch fluorescence ratio was 1.01.

TGATAGGCGC was tested, and the switch fluorescence ratio was 0.987.

For TAGGAGTCGT, the switch fluorescence ratio was 0.944.

AAGCAGGTAT showed a switch fluorescence ratio of 0.998.

CAGACATCTT showed a switch fluorescence ratio of 1.02.

In the case of CCAATTCGCA, the switch fluorescence ratio is reported as 1.67.

In the case of GGCCGTAGAC, the switch fluorescence ratio is reported as 1.17.

In the case of TTCAAAGTCT, the switch fluorescence ratio is reported as 0.975.

With TTAAGGGCGG the switch fluorescence ratio was 1.05.

Sequence AATATTACCC has a switch fluorescence ratio of 1.06.

AGGGGATTA showed a switch fluorescence ratio of 1.03.

CGAGGAGCTG gave a switch fluorescence ratio of 0.948.

Work on TGTGAACGAT yielded a switch fluorescence ratio of 1.02.

For TCCACTACAT, the switch fluorescence ratio was 1.08.

Sequence CTATGTAACC has a switch fluorescence ratio of 1.07.

For CGCGGATCGG, the switch fluorescence ratio was 1.01.

TTAGAAGCGT was tested, and the switch fluorescence ratio was 1.02.

AATAAAAAG was tested, and the switch fluorescence ratio was 1.02.

In the case of TGGCCCGGGT, the switch fluorescence ratio is reported as 1.07.

Sequence TTCTTAACTG has a switch fluorescence ratio of 1.08.

GGGTGCCTCG gave a switch fluorescence ratio of 1.02.

GTTAGGCGGA was tested, and the switch fluorescence ratio was 0.995.

With TGTTCGGCTT the switch fluorescence ratio was 1.02.

Sequence TAGTTAGGGC has a switch fluorescence ratio of 0.994.

Sequence TTGCATAACC has a switch fluorescence ratio of 1.04.

TATGTTTTCC showed a switch fluorescence ratio of 1.

In the case of AATTCTACCG, the switch fluorescence ratio is reported as 1.07.

CAAAGGCGTC gave a switch fluorescence ratio of 0.971.

For ATCTAAATAT, the switch fluorescence ratio was 1.01.

Work on ATATCCTTTC yielded a switch fluorescence ratio of 1.44.

AAAATTATTA was tested, and the switch fluorescence ratio was 1.03.

Sequence TCCTAGGGCG has a switch fluorescence ratio of 0.959.

GCAATCCTAT gave a switch fluorescence ratio of 1.06.

For AATTCTGGAT, the switch fluorescence ratio was 1.02.

Work on GATGCGCAAG yielded a switch fluorescence ratio of 1.1.

GCTCTTGGG gave a switch fluorescence ratio of 0.923.

With ATGATGGCTA the switch fluorescence ratio was 0.981.

Work on GCGAGCGCAG yielded a switch fluorescence ratio of 1.06.

For GACAGCCGCA, the switch fluorescence ratio was 1.18.

Work on CGTAACCCAC yielded a switch fluorescence ratio of 1.48.

With AATACACTAC the switch fluorescence ratio was 1.37.

In the case of TGGTTCCTCG, the switch fluorescence ratio is reported as 1.07.

ATCTCGGCCT was tested, and the switch fluorescence ratio was 1.03.

With TGTTGCGGTC the switch fluorescence ratio was 1.06.

Work on GCAGTTGGAG yielded a switch fluorescence ratio of 0.969.

Work on GCATAAGGAG yielded a switch fluorescence ratio of 1.06.

Sequence ATTTTCATTT has a switch fluorescence ratio of 0.99.

In the case of ACATGGTCAT, the switch fluorescence ratio is reported as 1.01.

TCCGGCAATT was tested, and the switch fluorescence ratio was 1.19.

TATGCCGTCA was tested, and the switch fluorescence ratio was 0.969.

Sequence CTAGTTTGTC has a switch fluorescence ratio of 0.953.

In the case of GCTACAC, the switch fluorescence ratio is reported as 1.09.

Sequence ATGATGTTCT has a switch fluorescence ratio of 1.01.

GGAAGGCCAG gave a switch fluorescence ratio of 0.96.

With TTGTAAACG the switch fluorescence ratio was 1.01.

With CATGGTGCCT the switch fluorescence ratio was 1.06.

GCGCCTAAGG was tested, and the switch fluorescence ratio was 1.01.

With CAACCGAACT the switch fluorescence ratio was 1.28.

Work on GAGATCTGAG yielded a switch fluorescence ratio of 1.

TTATGTAGCC was tested, and the switch fluorescence ratio was 1.06.

TCAATGTAAG showed a switch fluorescence ratio of 0.95.

CGGGGCGGTA gave a switch fluorescence ratio of 1.03.

TCCCAATTTC was tested, and the switch fluorescence ratio was 1.3.

For CCTAAGGAGC, the switch fluorescence ratio was 1.04.

TTCCTCGATA was tested, and the switch fluorescence ratio was 1.02.

TTGGGGGAA gave a switch fluorescence ratio of 1.06.

TACCAAGCGG showed a switch fluorescence ratio of 0.997.

Work on AGCACGCTTA yielded a switch fluorescence ratio of 0.99.

With AGGGATGGAA the switch fluorescence ratio was 0.947.

AGGTGGAAAG showed a switch fluorescence ratio of 1.01.

GGTAGAATTT showed a switch fluorescence ratio of 0.994.

Work on AGATACCTTT yielded a switch fluorescence ratio of 0.999.

TCATGGCAGG gave a switch fluorescence ratio of 0.994.

For GGAGAAGCGA, the switch fluorescence ratio was 1.02.

For GCACATGCAG, the switch fluorescence ratio was 0.967.

Sequence AACAAGCTTG has a switch fluorescence ratio of 0.984.

Sequence TTGAATTGAG has a switch fluorescence ratio of 0.951.

For GCTTCTCTC, the switch fluorescence ratio was 1.08.

AGACTGTGTG was tested, and the switch fluorescence ratio was 0.972.

With GGAAGGCACG the switch fluorescence ratio was 1.05.

AGCAGCACTG was tested, and the switch fluorescence ratio was 1.03.

CGGTCACCGA showed a switch fluorescence ratio of 1.01.

GCACTTGGCT showed a switch fluorescence ratio of 1.

CAAGGAAGGC gave a switch fluorescence ratio of 1.07.

With GGGTGTTTCG the switch fluorescence ratio was 0.964.

In the case of TATATAGCTC, the switch fluorescence ratio is reported as 1.03.

In the case of ATCACGTCCA, the switch fluorescence ratio is reported as 0.986.

For AAAAGTCGTA, the switch fluorescence ratio was 0.982.

With GTGTATATTT the switch fluorescence ratio was 0.943.

Work on TCGGGGTTCC yielded a switch fluorescence ratio of 0.982.

GTAGTGAGG gave a switch fluorescence ratio of 1.02.

With ACAGATGATA the switch fluorescence ratio was 1.01.

For GCCGTACTGC, the switch fluorescence ratio was 1.05.

CTGTAACGTC gave a switch fluorescence ratio of 1.09.

CGGGCTAGGA gave a switch fluorescence ratio of 1.

Sequence AACAATAATC has a switch fluorescence ratio of 1.06.

In the case of TAGGGACGAG, the switch fluorescence ratio is reported as 0.988.

TTCGCGGTCC showed a switch fluorescence ratio of 1.18.

AGTCAAGGCC was tested, and the switch fluorescence ratio was 1.03.

GTACTCATGG showed a switch fluorescence ratio of 1.01.

ATCATAAAGA was tested, and the switch fluorescence ratio was 0.958.

Work on ATCTCCCGGG yielded a switch fluorescence ratio of 1.37.

GTAGTTTATT showed a switch fluorescence ratio of 0.981.

For GATTTACACT, the switch fluorescence ratio was 1.04.

GCAATATCGT was tested, and the switch fluorescence ratio was 1.41.
